Test [1] addresses full-length HA–HESX1 (mouse) (UniProt Q61658). Description: co-IP; 293T cells co-transfected with HA–HESX1 and Flag–DNMT1 constructs; lysis buffer with 1% Triton X-100; anti-Flag or anti-HA antibodies on protein G sepharose, 2 h, 4 °C; blots with HRP-conjugated anti-HA or anti-Flag.
Test [2] has the same target. Description: co-IP; transfected CHO cells, HA–HESX1 and Flag–DNMT1; unpublished data; protein levels much lower than in 293T.
Test [3] addresses GST–DNMT1 (aa 746–1110) (mouse) (UniProt P13864). Description: pull-down; about 2 ug GST fusion (or GST alone) on glutathione–sepharose beads incubated with 35S-methionine-labelled in vitro translated protein, 2 h, 4 °C, binding buffer (20 mM Tris–HCl pH 7.5, 200 mM NaCl, 1 mM EDTA, 10% glycerol); SDS-PAGE, autoradiography; only the target purified.
Test [4] has as its target GST–DNMT1 (aa 686–812) (mouse) (UniProt P13864). Described as above.
Test [5] concerns the target GST–DNMT1 (aa 613–748) (mouse) (UniProt P13864). Described as above.
Test [6] has as its target GST–DNMT1 (aa 1124–1620) (mouse) (UniProt P13864). Described as above.
Test [7] deals with GST–DNMT1 (aa 1–343) (mouse) (UniProt P13864). The description is as above.
Test [8] addresses GST–DNMT1 (aa 350–609) (mouse) (UniProt P13864). The description is as above.
The target in test [9] is GST–DNMT1 (aa 653–730) (mouse) (UniProt P13864). The test is described as above.
In test [10] the target is GST–HESX1 (aa 1–185) (mouse) (UniProt Q61658). The test is described as above.
Test [11] concerns the target T1, GST–HESX1 (aa 1–107) (mouse) (UniProt Q61658).
T1 sequence: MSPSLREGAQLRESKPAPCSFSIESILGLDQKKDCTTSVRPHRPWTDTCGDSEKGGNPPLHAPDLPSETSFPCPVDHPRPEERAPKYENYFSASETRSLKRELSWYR
The description is as above.

By UniProt entry, the sequences of proteins in these tests, tags left out. Where a name states a change or a piece, a line headed by the entry shows the natural chain unless it says otherwise. Residues count along the entry.
UniProt P13864: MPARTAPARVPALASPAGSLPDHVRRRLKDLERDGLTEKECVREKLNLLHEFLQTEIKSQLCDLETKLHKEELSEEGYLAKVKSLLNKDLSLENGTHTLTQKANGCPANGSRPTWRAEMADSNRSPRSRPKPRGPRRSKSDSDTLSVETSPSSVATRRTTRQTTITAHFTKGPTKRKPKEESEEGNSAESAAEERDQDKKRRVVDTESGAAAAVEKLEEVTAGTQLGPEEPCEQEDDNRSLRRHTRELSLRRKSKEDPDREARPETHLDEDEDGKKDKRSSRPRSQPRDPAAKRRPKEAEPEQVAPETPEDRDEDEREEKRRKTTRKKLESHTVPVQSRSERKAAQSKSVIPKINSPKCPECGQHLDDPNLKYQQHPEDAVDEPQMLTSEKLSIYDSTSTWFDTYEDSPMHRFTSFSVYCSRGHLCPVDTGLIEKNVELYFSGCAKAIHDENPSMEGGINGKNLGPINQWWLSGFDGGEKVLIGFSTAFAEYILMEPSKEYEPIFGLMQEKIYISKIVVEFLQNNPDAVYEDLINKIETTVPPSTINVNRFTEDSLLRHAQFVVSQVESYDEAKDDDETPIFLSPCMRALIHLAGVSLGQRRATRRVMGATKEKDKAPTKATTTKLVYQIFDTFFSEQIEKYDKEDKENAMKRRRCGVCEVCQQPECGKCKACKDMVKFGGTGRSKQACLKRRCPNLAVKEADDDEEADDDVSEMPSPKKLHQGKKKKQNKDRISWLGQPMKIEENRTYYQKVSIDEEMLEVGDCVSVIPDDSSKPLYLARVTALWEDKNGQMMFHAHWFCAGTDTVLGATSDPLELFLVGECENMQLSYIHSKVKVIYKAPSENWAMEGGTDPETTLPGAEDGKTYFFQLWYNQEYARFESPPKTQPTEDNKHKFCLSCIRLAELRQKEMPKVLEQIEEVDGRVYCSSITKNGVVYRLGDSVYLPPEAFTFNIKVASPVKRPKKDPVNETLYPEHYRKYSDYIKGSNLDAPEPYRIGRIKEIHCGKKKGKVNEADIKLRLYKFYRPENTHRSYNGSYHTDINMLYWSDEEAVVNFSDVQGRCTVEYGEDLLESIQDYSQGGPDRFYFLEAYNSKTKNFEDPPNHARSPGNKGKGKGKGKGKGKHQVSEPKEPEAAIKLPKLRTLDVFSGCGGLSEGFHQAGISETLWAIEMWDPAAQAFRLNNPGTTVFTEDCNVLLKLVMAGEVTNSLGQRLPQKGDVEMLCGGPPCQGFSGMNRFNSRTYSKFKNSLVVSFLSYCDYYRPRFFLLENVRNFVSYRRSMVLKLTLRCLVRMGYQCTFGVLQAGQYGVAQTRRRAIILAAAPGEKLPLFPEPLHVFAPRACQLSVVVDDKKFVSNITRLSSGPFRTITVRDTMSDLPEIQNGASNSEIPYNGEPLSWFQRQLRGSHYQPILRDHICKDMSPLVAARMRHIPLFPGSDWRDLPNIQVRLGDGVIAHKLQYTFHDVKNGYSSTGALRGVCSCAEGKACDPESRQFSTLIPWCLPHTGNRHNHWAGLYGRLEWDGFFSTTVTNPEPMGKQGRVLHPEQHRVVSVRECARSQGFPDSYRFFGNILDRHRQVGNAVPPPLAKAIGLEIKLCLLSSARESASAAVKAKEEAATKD
GST–DNMT1 (aa 1–343): residues 1-343 of P13864
GST–DNMT1 (aa 350–609): residues 350-609 of P13864
GST–DNMT1 (aa 613–748): residues 613-748 of P13864
GST–DNMT1 (aa 653–730): residues 653-730 of P13864
GST–DNMT1 (aa 686–812): residues 686-812 of P13864
GST–DNMT1 (aa 746–1110): residues 746-1110 of P13864
GST–DNMT1 (aa 1124–1620): residues 1124-1620 of P13864
UniProt D3YXK2: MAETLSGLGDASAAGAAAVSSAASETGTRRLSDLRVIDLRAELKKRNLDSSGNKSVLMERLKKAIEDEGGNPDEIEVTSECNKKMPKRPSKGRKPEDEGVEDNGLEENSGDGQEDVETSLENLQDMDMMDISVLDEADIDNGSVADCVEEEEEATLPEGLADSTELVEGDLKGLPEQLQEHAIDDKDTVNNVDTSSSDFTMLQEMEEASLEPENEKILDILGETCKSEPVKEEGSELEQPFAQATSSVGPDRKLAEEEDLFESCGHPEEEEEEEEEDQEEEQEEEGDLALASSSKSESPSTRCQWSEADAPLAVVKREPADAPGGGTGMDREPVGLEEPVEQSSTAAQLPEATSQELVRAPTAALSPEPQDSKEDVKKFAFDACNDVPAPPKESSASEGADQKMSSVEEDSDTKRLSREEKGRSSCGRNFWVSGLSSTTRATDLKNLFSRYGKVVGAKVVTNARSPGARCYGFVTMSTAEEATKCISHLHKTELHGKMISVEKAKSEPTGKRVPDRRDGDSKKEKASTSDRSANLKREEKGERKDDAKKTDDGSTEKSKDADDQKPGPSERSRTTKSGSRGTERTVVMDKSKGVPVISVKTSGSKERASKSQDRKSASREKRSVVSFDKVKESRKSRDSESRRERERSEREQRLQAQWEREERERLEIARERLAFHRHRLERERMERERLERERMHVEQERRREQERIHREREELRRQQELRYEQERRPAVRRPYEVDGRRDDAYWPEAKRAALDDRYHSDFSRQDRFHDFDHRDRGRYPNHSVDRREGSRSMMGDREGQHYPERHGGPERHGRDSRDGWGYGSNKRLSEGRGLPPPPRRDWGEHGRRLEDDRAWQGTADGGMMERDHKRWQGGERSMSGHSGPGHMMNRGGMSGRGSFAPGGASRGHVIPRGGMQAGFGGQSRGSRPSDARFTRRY

In test [12] the target is GST–HESX1 (aa 1–185) (mouse) (UniProt Q61658). Description: pull-down; GST–HESX1 (aa 1–185) or GST on glutathione–sepharose beads incubated with about 1 mg protein extract of untransfected ES cells; Western blot with anti-DNMT1 antibody; only the target purified. In general terms: In western blotting, separated proteins are transferred to a membrane and probed.

Results are given in words; binding and its absence hold for the method and conditions named. In cells and extracts the contact can be indirect. Some results given as binding are weak or reduced against the parent protein; the word gives no strength. For some assays here: Tags and fused reporters may be left off the sequences shown.

As for “full-length Flag–DNMT1 (aa 1–1620) (from UniProt P13864 1-1620)”, the binding entry in test [1] and in test [2] was “binds” throughout.
As to “in vitro translated full-length HESX1 (aa 1–185) (from UniProt Q61658 1-185)”, the binding result is listed as “binds weakly” in test [3]; “no binding” in [4]; “binds” in test [5]; “binds” in test [6]; “binds” in test [7]; “binds” in test [8]. In addition, in [9], the binding entry is given as “binds”.
Take “in vitro translated SAFB1 (from UniProt D3YXK2 1-937)”: the binding result in test [10] and in [11] was “binds” each time.
On to “endogenous DNMT1 of ES cells (from UniProt P13864 1-1620)”, for which, in [12], the binding result is “binds”.
Consider “in vitro translated full-length DNMT1 (aa 1–1620) (from UniProt P13864 1-1620)”, for which the binding result in test [10] is recorded as “binds”; in [11], “binds weakly”.

B1: in vitro translated SRFBP1 (protein, UniProt Q9CZ91 1-441)
chain: MAADPLPPSAMVQPGTLNLNNEVVKMRKEVKRIRVLVIRKLVRSVGRLKSKKGTEDALLKNQRRAQRLLEEIHAMKELKPDVVTKSALSDDINFEKTCKKPDSTATDRAVARLAGHPLLKKKIDVLKDAVQAFKDARQSAPAAESSESTSGEGRCKDIARSKDDARESQHPERTVVREQKAKDTNTAAKNAASGSKEKLAKTEQAPRAGTTPGSQGRPSGKGAGVNSEHQGAPAPGDSNQGKASTKTPEDSVCEPANNGVSEEEESEGEKEYFDDSTEERFYKQSSASEDSDSGDDFFIGKVRRTRKKESGVHSSAKELKPLPKVPSKTSTLETPWDVRNDKHRPIPEARKFESVFFHSLAGPKSSRRDPREQAPKNKAPDFPENEPPVKKQFTKSAYRGFESVKQTMQAPLHPSWEASRRRKEQQSKIAVFQGKKITFDD
modifications: 35S-methionine label
Regarding B1, the binding entry in test [10] and in test [11] was “binds” each time.

B2: in vitro translated LONP2 (protein, UniProt Q9DBN5 1-852)
chain: MSSVSPIQIPSRLPLLLTHESVLLPGSTMRTSVDTARNLQLVRSRLLKGTSLQSTILGVIPNTPDPASDTQDLPPLHRIGTAALAVQVVGSNWPKPHYTLLITGLCRFQIVQVLKEKPYPVAEVEQLDRLEEFPNICKSREELGELSEQFYRYAVQLVEMLDMSVPAVAKLRRLLDNLPREALPDILTSIIRTSNKEKLQILDAVSLEDRFKMTIPLLVRQIEGLKLLQKTRKPKQDDDKRVIAIRPIRRIPHIPGTLEDEEEEEDNDDIVMLEKKIRTSSMPEQAHKVCVKEIKRLKKMPQSMPEYALTRNYLELMVELPWNKSTTDRLDIRAARILLDNDHYAMEKLKRRVLEYLAVRQLKNNLKGPILCFVGPPGVGKTSVGRSVAKTLGREFHRIALGGVCDQSDIRGHRRTYVGSMPGRIINGLKTVGVNNPVFLLDEVDKLGKSLQGDPAAALLEVLDPEQNHNFTDHYLNVAFDLSQVLFIATANTTATIPPALLDRMEIIQVPGYTQEEKIEIAHRHLIPKQLEQHGLTPQQIQIPQHTTLAIITRYTREAGVRSLDRKFGAICRAVAVKVAEGQHKEAKLDRSDVADGEGCKEHVLEDAKPESISDTADLALPPEMPILIDSHALKDILGPPLYELEVSERLSQPGVAIGLAWTPLGGKIMFVEASRMDGEGQLTLTGQLGDVMKESAHLAISWLRSNAKKYHLTNAFGSFDLLDNTDIHLHFPAGAVTKDGPSAGVTIVTCLASLFSGRLVRSDVAMTGEITLRGLVLPVGGIKDKVLAAHRAGLKQIIIPQRNEKDLEEIPSNVRQDLSFVTASCLDEVLNAAFDGGFPVKTRPGLIDSKL
modifications: 35S-methionine label
Take B2: the binding result in test [10] and in test [11] was “binds” each time.

B3: in vitro translated ZFP592 (clone lacking 120 aa of the N-terminal part) (domain or fragment, UniProt Q8BHZ4 121-1262)
chain: RSFTSKLEPSKSEPLPTFNQFSPISSPEPEDPVKDNGFGIKSKHSDSYFPPPPGTVGGPVLEALSKFPVPELHMFDHFCKKEPKPEPLPLESQQEHEQGGQKVVEPHKDLDSSRFFGEALEFNSHPSNSIGEPKKLAPELSACSSVPPRQRLKPAHSKLSSCVAALVALQAKRVANVTKEDQPGHTKDSSGPTKEGSKGSPKMPKSPKSPRSPLEATRKSIKPSDSPRSICSDSSSKGSPSVAASSPPAIPKVRIKTIKTSSGEIKRTVTRILPDPDDPSKSPAESPAGSTITEAPSEAPGDEGTAMPVEEHFSEAGIHSGSPQGDRKGDENMIKTSDSSSPCRISGSRVPKGSALNSQASKKQQSTAPQASTPAASLLPKAVHLANLNLVPHSVAASVTAKSSAQRRSQPQVTQMTVPLVHQVKKAAPLIVEVFNKVLHSSNPVPLYAPNLSPPADSRIHVPASGYCCLECGDAFALEKSLSQHYSRRSVHIEVLCTLCSKTLLFFNKCSLLRHARDHKSKGLVMQCSQLLVKPISADQMFVAAPVNSTAPATPAASSSPKPSPTLDNASSVIPALPLYPDPVRLIRYGTKCPECHKQMRDYMVLATHFQRTTEETEGLTCQVCQMLLPNQCSFCAHQRIHAHKSPYCCPECGVLCRSAYFQTHVKENCLHYARKVGYRCIHCGVIHLTLALLKSHIQERHCQVFHKCAFCPMAFKTASSTMDHSTTQHPTQPHKPSQLIYKCSCEMVFNKKRHIQQHFYQNVSKTQAGVFKCPECPLLFLQKPELMQHVKNTHGVPRNVEELSSLQSSTDTSSNRPGSRAPAEPPATNVAARGSSLTAGRWGRPEAHRRAEARPRMRSTGWTCQECQEWVPDRESYVSHMKKSHGRTLKRYPCRQCEQSFHNPSSLRKHIRNNHDTVKKVYTCGYCTEDSPSFPRPSLLESHISLMHGIRNPDLSQTSKVRHPGGPSPQVNHLKRPVSRMADAPGTSNGATVSSTKRHKSLFQCAKCTFATDSELEFQSHIPQHQVDSSTAQCLLCGLCYTSTSSLNRHLFIVHKVRDQEEGGEDIVEVKVEAPDSEACSGEEVAMETKENGLEECASEPLVTDLGGQQGLALDEDSAQDPQNQPQASQDQNSHALSPQV
modifications: 35S-methionine label
As for B3, the binding result in test [10] and in [11] was “binds” each time.
